Molecules are shown by their SMILES. Where “and” joins values, the source holds several entries; their conditions need not be identical. Equal entries are not always repeated. The list shows a part of the results. Shown are side measurements of this screen, not its main read-out; they come without a call. Most of these compounds were active or inconclusive in the main read-out, so they are no random draw.

The experiment is described as follows: inhibitors of triacylglycerol accumulation, primary screen, cell-based, uHTS, fluorescence, H9c2 (AID 651582). The note with it: H9c2 cells, Nile Red lipid (TAG) fluorescence; measured here:; at 12.5 µM; cells loaded with 200 µM oleic acid.
Regarding `CCCCCCCCCCCCCCCC[N+](C)(C)Cc1ccc(F)cc1`, the DAPI nuclei signal change (viability), lower = more cytotoxic was -41.1%.
Turning to `COc1ccc(S(=O)(=O)N(C)C[C@@H]2OCCCC[C@H](C)Oc3ccc(NC(=O)Nc4ccc(C(F)(F)F)cc4)cc3C(=O)N([C@H](C)CO)C[C@H]2C)cc1`, the DAPI nuclei signal change (viability), lower = more cytotoxic is -7.7%.
Take `COc1ccc(-c2sc3ccccc3c2-c2ccc(OCCN(C)C)cc2)cc1`: the DAPI nuclei signal change (viability), lower = more cytotoxic was -26.1%.
Under `S=c1[nH]nc(-c2cc(-c3ccccc3)n[nH]2)n1/N=C/C(Br)=C/c1ccccc1` stands -34.1%; under `Cc1cccc(CSc2cccc3cccnc23)c1`, -33%.
Under `COc1ccc(CNC(=O)C[C@H]2C[C@H](C(=O)N3CCCCC3)[C@@]3(CCc4ccccc4)c4[nH]c5ccc(Cl)cc5c4CCN3C2=O)cc1OC` stands -5.02%; under `Oc1ccc2ccccc2c1N=Nc1ccc(F)cc1`, 0.781%; under `C(=N\NC1=Nc2cccc3cccc1c23)/c1ccccn1`, -14.1%.
Consider `O=c1cc(-c2cccc(Cl)c2)oc2cccc(O)c12`, for which the DAPI nuclei signal change (viability), lower = more cytotoxic was -40.3%.
`CC(C)CN1CCN(C(=O)COC(=O)c2ccc(S(C)(=O)=O)c([N+](=O)[O-])c2)CC1`: the DAPI nuclei signal change (viability), lower = more cytotoxic was -26%.
For `CCC(C)(C)NC(=O)C(c1ccc(OC)cc1)N(Cc1cccs1)C(=O)CCC(=O)Nc1cc(C)on1` (stereo not given), the DAPI nuclei signal change (viability), lower = more cytotoxic was -10.2%.
On to `O=C(C[C@H]1C[C@H](C(=O)N2CCCCC2)[C@@]2(CCc3ccccc3)c3[nH]c4ccc(Cl)cc4c3CCN2C1=O)NCc1cccc(C(F)(F)F)c1`, for which the DAPI nuclei signal change (viability), lower = more cytotoxic was -19.2%.
Under `O=Nc1c(O)c2ccccc2c2ccccc12` stands 2.6%; under `CCN1CCN(Cc2ccc(NC(=O)c3cc(NC(=O)C(=O)c4c[nH]c5ccccc45)cc(OC)c3)cc2C(F)(F)F)CC1`, -37.9% and -40.3%; under `COc1ccccc1C1=NOC(COc2ccc3c(C)cc(=O)oc3c2)C1` (stereo not given), -32.6%.
Consider `CN(C)CCNC=C(C(=O)Nc1ccc(Cl)cc1Cl)C(=O)Nc1ccc(Cl)cc1Cl`, for which the DAPI nuclei signal change (viability), lower = more cytotoxic is -47.4%.
Turning to `c1ccc(CCNc2ccnc3cc4ccccc4cc23)cc1`, the DAPI nuclei signal change (viability), lower = more cytotoxic came to 77.4%.
For the compound `COc1cc([C@H]2c3[nH]c4ccccc4c3C[C@H]3C(=O)N4[C@@H](c5cc(OC)c(OC)c(OC)c5)c5[nH]c6ccccc6c5C[C@H]4C(=O)N23)cc(OC)c1OC`, the DAPI nuclei signal change (viability), lower = more cytotoxic was -35.8%.
As to `CSC1=NC(C(Cl)(Cl)Cl)N=C(c2ccc(C)cc2)N1` (stereo not given), the DAPI nuclei signal change (viability), lower = more cytotoxic is -33.3%.
Under `C=CCn1cnc2c(c1=O)c1nc3ccccc3nc1n2/N=C/c1cc(OC)c(OC)c(OC)c1` stands -25.5%; under `O=C(Cn1ncc(Cl)c(Cl)c1=O)NC(=O)NC1CCCCC1`, -18.2%; under `O=C(Cn1ncc(Cl)c(Cl)c1=O)N1CCN(Cc2ccccc2)CC1`, -40.7%.
Turning to `Cc1ccc(CN(C)C(=O)CN2C(=O)NC3(CCCc4ccccc43)C2=O)c(C)c1` (stereo not given), the DAPI nuclei signal change (viability), lower = more cytotoxic is -2.33%.
In the case of `O=C(CN(Cc1ccco1)C(=O)c1cccc(Cl)c1)Nc1c(Cl)cc(Cl)cc1Cl`, the DAPI nuclei signal change (viability), lower = more cytotoxic was determined as 5.97%.
`C#CCN(C[C@@H]1[C@@H](OC(=O)NCc2ccco2)[C@@H](OC(=O)NCc2ccco2)CN(C(=O)OC(C)C)N1C(=O)OC(C)C)S(=O)(=O)c1ccc(C)cc1`: the DAPI nuclei signal change (viability), lower = more cytotoxic is -31.2%.
Turning to `CCOc1ccccc1NC(=O)N1CCCC1C(=O)Nc1ccc(-n2cnnn2)c(C)c1` (stereo not given), the DAPI nuclei signal change (viability), lower = more cytotoxic is -8.45%.
`C/C(=N\NC(=O)C12CCC(C)(C(=O)O1)C2(C)C)c1ccccc1O` (stereo not given): the DAPI nuclei signal change (viability), lower = more cytotoxic is -24.3%.
On to `COc1ccc(NC(=O)C2(C)Cc3c(-c4cccc(NC(C)=O)c4)ccnc3O2)cn1` (stereo not given), for which the DAPI nuclei signal change (viability), lower = more cytotoxic is -36.6%.
With `COc1ccc(OC)c(/C=C/C(=O)OCC(=O)c2c(N)n(C)c(=O)n(C)c2=O)c1`, the DAPI nuclei signal change (viability), lower = more cytotoxic is -38.4%.
As for `COc1ccccc1CNC(=O)CN1C(=O)NC(c2ccccc2)(c2ccc(C)c(C)c2)C1=O` (stereo not given), the DAPI nuclei signal change (viability), lower = more cytotoxic is -11.1%.
As for `CC[C@@H](C)[C@H](CN[C@H](CNC)C(C)C)NC[C@@H](C)c1ccc(CC(C)C)cc1`, the figure is -40.6%; as for `Cc1[nH]c2ccccc2c1/C=N/Nc1nc(Nc2ccc(F)cc2)nc(N2CCOCC2)n1`, -38.7%.
Regarding `CC(C)C[C@@H](CNC(=O)OC(C)(C)C)NC(=O)c1nc[nH]c1C(=O)N[C@@H](CC(C)C)C(=O)CNC[C@H](CC(C)C)NC(=O)c1nc[nH]c1C(=O)N[C@@H](Cc1c[nH]c2ccccc12)C(=O)OC(C)(C)C`, the DAPI nuclei signal change (viability), lower = more cytotoxic is -12.9%.
In the case of `C/C(=N\Nc1cc(N2CCOCC2)nc(C)n1)c1ccc(F)cc1`, the DAPI nuclei signal change (viability), lower = more cytotoxic was -27.9%.
Under `CCOc1ccc2nc(-c3ccccc3)nc(SCC(=O)Nc3ncc(C)s3)c2c1` stands 0.696%; under `CSc1sc(-c2ccnc(=S)[nH]2)c(-c2ccccc2)c1C#N`, -19.5%; under `CC(=O)NC(c1cc(Cl)c2cccnc2c1O)C(C)C` (stereo not given), 3.73%.
For `Cn1nnnc1Sc1ncnc2scc(-c3cccc(S(C)(=O)=O)c3)c12`, the DAPI nuclei signal change (viability), lower = more cytotoxic is -31.6%.
As for `Oc1cc(-c2ccc(N3CCCCC3)nc2)cc2cccnc12`, the DAPI nuclei signal change (viability), lower = more cytotoxic is -4.74%.
As for `CNC(=S)NN=C(C)CCCC(C)=NNC(=S)NC`, the DAPI nuclei signal change (viability), lower = more cytotoxic was -25.2%.
As for `COc1cc(C(=O)N2CCN(c3cc(Cl)ccc3Cl)CC2)cc(OC)c1OC`, the figure is -40.5%; as for `Cc1cccc(NC(=O)c2nc[nH]c2C(=O)NCCCNC(=O)c2[nH]cnc2C(=O)Nc2cccc(C)c2)c1`, 8.74%; as for `Cc1cccc2sc(NC(=O)CCNS(=O)(=O)c3cccs3)nc12`, 114%.
With `Cc1ccc(C(=O)Nc2cccc(C(F)(F)F)c2)cc1NC(=O)c1nccn1C`, the DAPI nuclei signal change (viability), lower = more cytotoxic was -34.4%.
As for `COc1ccccc1N(C(=O)CCl)c1cn(C(C)=O)c2ccccc12`, the figure is -18.5%.

Source of the values: PubChem BioAssay AID651582 (Sanford-Burnham Center for Chemical Genomics, 2012).
